# From the supplement of paper PMC8728848
# The list shows a part of the results.
# B1: MGL2 (Mus musculus), Q8JZN1 (protein)
# chain: MTMRYENFQNLEREEKNQEMRNGDKKGGMESPKFALIPSQSFLWRILSWTHLLLFSLGLSLLLLVVISVIGSQNSQLRRDLGTLRAILDNTTSKIKAEFQSLDSRADNFEKGISSLKVDVEDHRQELQAGRDLSQKVTSLESTLEKREQALKTDLSDLTDHVQQLETDLKALTCQLANLKNNGSEVACCPLHWTEHEGSCYWFSESEKSWPEADKYCRLENSHLVVVNSLEEQNFLQNRLANVLSWMGLTDQNGPWRWVDGTDFDKGFKNWRPLQPDNWHGHMLGGGEDCAHFSYDGRWNDDVCQRHYHWICETELGKASSAHSPQLIASVP
# Tests used:
# Test in all cases: glycan array binding signal (z-score within array); higher = stronger binding
# Conditions in all cases: glycan notation: IUPAC condensed, linker removed
# Fuc(a1-2)Gal = biological target: Fuc(a1-2)Gal
# Procedure, shortened: (§1)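 Arrays were curated from the Consortium for Functional Glycomics database, 3228 in total, and kept only where the protein sequence was available. Binding is expressed as a within-array Z-score. This score was averaged across arrays of the same protein sequence at different concentrations or buffers and across linkers, and negative values can be read as non-binding.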
# Fuc(a1-2)Gal(b1-3)GalNAc = biological target: Fuc(a1-2)Gal(b1-3)GalNAc
# Procedure, shortened: as §1
# [1] = biological target: Fuc(a1-2)Gal(b1-3)GalNAc(a1-3)[Fuc(a1-2)]Gal(b1-4)Glc
# Procedure, shortened: as §1
# [2] = biological target: Fuc(a1-2)Gal(b1-3)GalNAc(a1-3)[Fuc(a1-2)]Gal(b1-4)GlcNAc
# Procedure, shortened: as §1
# [3] = biological target: Fuc(a1-2)Gal(b1-3)GalNAc(b1-3)Gal
# Procedure, shortened: as §1
# [4] = biological target: Fuc(a1-2)Gal(b1-3)GalNAc(b1-3)Gal(a1-4)Gal(b1-4)Glc
# Procedure, shortened: as §1
# [5] = biological target: Fuc(a1-2)Gal(b1-3)GalNAc(b1-4)[Neu5Ac(a2-3)]Gal(b1-4)Glc
# Procedure, shortened: as §1
# Fuc(a1-2)Gal(b1-3)GlcNAc = biological target: Fuc(a1-2)Gal(b1-3)GlcNAc
# Procedure, shortened: as §1
# [6] = biological target: Fuc(a1-2)Gal(b1-3)GlcNAc(b1-2)Man(a1-3)[Fuc(a1-2)Gal(b1-3)GlcNAc(b1-2)Man(a1-6)]Man(b1-4)GlcNAc(b1-4)GlcNAc
# Procedure, shortened: as §1
# [7] = biological target: Fuc(a1-2)Gal(b1-3)GlcNAc(b1-2)Man(a1-3)[Fuc(a1-2)Gal(b1-3)GlcNAc(b1-2)Man(a1-6)]Man(b1-4)GlcNAc(b1-4)[Fuc(a1-6)]GlcNAc
# Procedure, shortened: as §1
# [8] = biological target: Fuc(a1-2)Gal(b1-3)GlcNAc(b1-3)Gal(b1-4)Glc
# Procedure, shortened: as §1
# [9] = biological target: Fuc(a1-2)Gal(b1-3)GlcNAc(b1-3)GalNAc
# Procedure, shortened: as §1
# [10] = biological target: Fuc(a1-2)Gal(b1-3)GlcNAc(b1-3)[Fuc(a1-2)Gal(b1-3)GlcNAc(b1-6)]GalNAc
# Procedure, shortened: as §1
# [11] = biological target: Fuc(a1-2)Gal(b1-3)GlcNAc(b1-3)[Gal(b1-4)GlcNAc(b1-6)]Gal(b1-4)Glc
# Procedure, shortened: as §1
# [12] = biological target: Fuc(a1-2)Gal(b1-3)GlcNAc(b1-3)[Neu5Ac(a2-6)Gal(b1-4)GlcNAc(b1-6)]Gal(b1-4)Glc
# Procedure, shortened: as §1
# [13] = biological target: Fuc(a1-2)Gal(b1-3)GlcNAc6S
# Procedure, shortened: as §1
# [14] = biological target: Fuc(a1-2)Gal(b1-3)[Fuc(a1-4)]GlcNAc
# Procedure, shortened: as §1
# [15] = biological target: Fuc(a1-2)Gal(b1-3)[Fuc(a1-4)]GlcNAc(b1-2)Man(a1-3)[Fuc(a1-2)Gal(b1-3)[Fuc(a1-4)]GlcNAc(b1-2)Man(a1-3)]Man(b1-4)GlcNAc(b1-4)GlcNAc
# Procedure, shortened: as §1
# [16] = biological target: Fuc(a1-2)Gal(b1-3)[Fuc(a1-4)]GlcNAc(b1-2)Man(a1-3)[Fuc(a1-2)Gal(b1-3)[Fuc(a1-4)]GlcNAc(b1-2)Man(a1-6)]Man(b1-4)GlcNAc(b1-4)[Fuc(a1-6)]GlcNAc(b1-4)[Fuc(a1-6)]GlcNAc
# Procedure, shortened: as §1
# [17] = biological target: Fuc(a1-2)Gal(b1-3)[Fuc(a1-4)]GlcNAc(b1-3)[Fuc(a1-3)[Gal(b1-4)]GlcNAc(b1-6)]Gal(b1-4)Glc
# Procedure, shortened: as §1
# [18] = biological target: Fuc(a1-2)Gal(b1-3)[Fuc(a1-4)]GlcNAc(b1-3)[Gal(b1-4)GlcNAc(b1-6)]Gal(b1-4)Glc
# Procedure, shortened: as §1
# [19] = biological target: Fuc(a1-2)Gal(b1-4)Fuc(a1-3)]GlcNAc(b1-2)Man(a1-3)[Fuc(a1-2)Gal(b1-4)[Fuc(a1-3)]GlcNAc(b1-2)Man(a1-6)]Man(b1-4)GlcNAc(b1-4)GlcNAc
# Procedure, shortened: as §1
# Fuc(a1-2)Gal(b1-4)Glc = biological target: Fuc(a1-2)Gal(b1-4)Glc
# Procedure, shortened: as §1
# Fuc(a1-2)Gal(b1-4)Glc6S = biological target: Fuc(a1-2)Gal(b1-4)Glc6S
# Procedure, shortened: as §1
# Fuc(a1-2)Gal(b1-4)GlcNAc = biological target: Fuc(a1-2)Gal(b1-4)GlcNAc
# Procedure, shortened: as §1
# [20] = biological target: Fuc(a1-2)Gal(b1-4)GlcNAc(b1-2)Man
# Procedure, shortened: as §1
# [21] = biological target: Fuc(a1-2)Gal(b1-4)GlcNAc(b1-2)Man(a1-3)[Fuc(a1-2)Gal(b1-4)GlcNAc(b1-2)Man(a1-6)]Man(b1-4)GlcNAc(b1-4)GlcNAc
# Procedure, shortened: as §1
# [22] = biological target: Fuc(a1-2)Gal(b1-4)GlcNAc(b1-2)Man(a1-3)[Fuc(a1-2)Gal(b1-4)GlcNAc(b1-2)Man(a1-6)]Man(b1-4)GlcNAc(b1-4)[Fuc(a1-6)]GlcNAc
# Procedure, shortened: as §1
# [23] = biological target: Fuc(a1-2)Gal(b1-4)GlcNAc(b1-2)[Fuc(a1-2)Gal(b1-4)GlcNAc(b1-4)]Man(a1-3)[Fuc(a1-2)Gal(b1-4)GlcNAc(b1-2)Man(a1-6)]Man(b1-4)GlcNAc(b1-4)GlcNAc
# Procedure, shortened: as §1
# [24] = biological target: Fuc(a1-2)Gal(b1-4)GlcNAc(b1-3)Gal(b1-4)GlcNAc
# Procedure, shortened: as §1
# [25] = biological target: Fuc(a1-2)Gal(b1-4)GlcNAc(b1-3)Gal(b1-4)GlcNAc(b1-2)Man(a1-3)[Fuc(a1-2)Gal(b1-4)GlcNAc(b1-3)Gal(b1-4)GlcNAc(b1-2)Man(a1-6)]Man(b1-4)GlcNAc(b1-4)GlcNAc
# Procedure, shortened: as §1
# [26] = biological target: Fuc(a1-2)Gal(b1-4)GlcNAc(b1-3)Gal(b1-4)GlcNAc(b1-3)Gal(b1-4)GlcNAc
# Procedure, shortened: as §1
# [27] = biological target: Fuc(a1-2)Gal(b1-4)GlcNAc(b1-3)GalNAc
# Procedure, shortened: as §1
# [28] = biological target: Fuc(a1-2)Gal(b1-4)GlcNAc(b1-3)[Fuc(a1-2)Gal(b1-4)GlcNAc(b1-6)]GalNAc
# Procedure, shortened: as §1
# [29] = biological target: Fuc(a1-2)Gal(b1-4)GlcNAc(b1-3)[Fuc(a1-3)[Gal(b1-4)]GlcNAc(b1-6)]Gal(b1-4)Glc
# Procedure, shortened: as §1
# [30] = biological target: Fuc(a1-2)Gal(b1-4)GlcNAc(b1-6)GalNAc
# Procedure, shortened: as §1
# [31] = biological target: Fuc(a1-2)Gal(b1-4)GlcNAc6S
# Procedure, shortened: as §1
binder,measurement,setting,value
B1,glycan array binding signal (z-score),Fuc(a1-2)Gal,-0.213
same,glycan array binding signal (z-score),Fuc(a1-2)Gal(b1-3)GalNAc,-0.158
same,glycan array binding signal (z-score),[1],-0.258
same,glycan array binding signal (z-score),[2],-0.243
same,glycan array binding signal (z-score),[3],-0.155
same,glycan array binding signal (z-score),[4],-0.128
same,glycan array binding signal (z-score),[5],-0.051
same,glycan array binding signal (z-score),Fuc(a1-2)Gal(b1-3)GlcNAc,-0.248
same,glycan array binding signal (z-score),[6],-0.024
same,glycan array binding signal (z-score),[7],-0.201
same,glycan array binding signal (z-score),[8],-0.259
same,glycan array binding signal (z-score),[9],-0.17
same,glycan array binding signal (z-score),[10],-0.139
same,glycan array binding signal (z-score),[11],-0.191
same,glycan array binding signal (z-score),[12],-0.188
same,glycan array binding signal (z-score),[13],-0.056
same,glycan array binding signal (z-score),[14],-0.063
same,glycan array binding signal (z-score),[15],0.069
same,glycan array binding signal (z-score),[16],-0.208
same,glycan array binding signal (z-score),[17],-0.057
same,glycan array binding signal (z-score),[18],-0.242
same,glycan array binding signal (z-score),[19],-0.175
same,glycan array binding signal (z-score),Fuc(a1-2)Gal(b1-4)Glc,-0.182
same,glycan array binding signal (z-score),Fuc(a1-2)Gal(b1-4)Glc6S,-0.198
same,glycan array binding signal (z-score),Fuc(a1-2)Gal(b1-4)GlcNAc,-0.155
same,glycan array binding signal (z-score),[20],-0.026
same,glycan array binding signal (z-score),[21],-0.014
same,glycan array binding signal (z-score),[22],-0.165
same,glycan array binding signal (z-score),[23],-0.106
same,glycan array binding signal (z-score),[24],-0.253
same,glycan array binding signal (z-score),[25],-0.236
same,glycan array binding signal (z-score),[26],-0.157
same,glycan array binding signal (z-score),[27],-0.244
same,glycan array binding signal (z-score),[28],-0.099
same,glycan array binding signal (z-score),[29],-0.299
same,glycan array binding signal (z-score),[30],1.79
same,glycan array binding signal (z-score),[31],-0.243
